Source: the supplement of paper PMC11417369
± gives the standard deviation of the averaged measurements. The list shows a part of the results.

system: PfAP2-I AP2 domain 3 (GST-tagged); test: gcPBM binding intensity (ln(normalized median fluorescence intensity)); higher = stronger DNA binding
Method in brief: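 The highest Masliner-normalised natural-log median intensity across replicate spots of either probe orientation is reported as binding intensity. GST-tagged P. falciparum DNA-binding domains expressed in E. coli were applied for 1 h to an Agilent 4 × 180k array of primer-extended double-stranded 36-bp intergenic genomic probes plus negative controls, and bound protein was detected with Alexa488 anti-GST antibody and scanned at 488 nm.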

Sequence | gcPBM binding intensity (ln)
AAATTAATATATAAAAGTACCCATATATTTAATATA [XGTACX_site3551] | 7.54 ± 0.45
TCAAAGCACCCATACACACACATATATATATATATA [CACACA_site4317] | 9.91 ± 0.7
GTACGTTACATAAATGTGCACATATTATATGCGAAG | 9.87 ± 0.24
GTCATATATATATGTACACACATATATATATTTATA [CACACA_site1459] | 7.77 ± 0.28
AGTTTGTTTTTTTTTTTTTTTTCCTGTCACAAACAA [CACACA_negctrl_site1093] | 8.22 ± 0.62
TCTCCACCTCTCTTGGTGCGTTATACCCTCGAGGCT | 11.3 ± 0.54
TATAACAAAATATTCACACATATAAGTAAATAAAGG [CACACA_site5777] | 7.87 ± 0.57
AAGAAAAAAATTTAATTAAATGAAATTTTTGAATTA [TGCATGCA_negctrl_site25] | 7.16 ± 0.57
AAGACTGCACTTTAAGCACACAAATATATTTTTTTT [CACACA_site8337] | 9.88 ± 0.2
AAAGTGGCCATATATTTTTTTTTTTTTTTCCTTATT [CACACA_negctrl_site485] | 7.56 ± 0.69
AAAAATAAAGGATATACACACTAATTATATATATAT [CACACA_site5550] | 8.845 ± 0.064
ATTATTATATTTATATGTACATAGAAAAAATTAAAT [XGTACX_site2058] | 7.91 ± 0.3
TCAGATATATATATATAAATATATATTTTGAAATGT [CACACA_negctrl_site686] | 7.62 ± 0.47
TAGTATCCAAGAAAAAGTACTTATTTTAATTTTTTA [XGTACX_site6243] | 7.48 ± 0.18
AATATTTATAAAGACACACAAACAAAAAGGATAAAA [CACACA_site2985] | 8.13 ± 0.65
TCATTTAAGTAGACGCGTACGGAAATTACGAATCCT [XGTACX_site144] | 7.54 ± 0.59
TAATTTATGACACGCGCACACATATATATATAGTAA [CACACA_site4249] | 8.31 ± 0.26
AAAAATTATGGACACACACACATATATATATATATT [CACACA_site4717] | 7.97 ± 0.45
GGTATACGCAAGTATACACACATATATATATATATA [CACACA_site3240] | 9.3 ± 0.35
AATAAAATAAAATACACACATACATACATACAAATG [CACACA_site2438] | 7.86 ± 0.49
AAAAACTAATCTTTAACATGCAACCGTTTATACATA [TGCATGCA_site363] | 7.6 ± 0.75
TGAGTTACATACTAATGTACACAACAAAAAAAAAAA [XGTACX_site2390] | 8.04 ± 0.8
AAAGGTTTATATGATACACACATAAGTGATCAGGTT [CACACA_site190] | 7.53 ± 0.75

Sequence | gcPBM binding intensity (ln)
TTTTTTTGAACATATACACACTCTAAACTTATACAT [CACACA_site3917] | 7.93 ± 0.46
AAAAAAAAAAAAGGAGGTACACAATTTTATATATGC [XGTACX_site5296] | 7.85 ± 0.27
ACAAGTCAGGCAAAAACATGCATTATTTGAACATTA [TGCATGCA_site864] | 7.92 ± 0.7
ACATTTTTTTCATATCGTACATATTATAATATTTTC [XGTACX_site6524] | 8.24 ± 0.62
GAGCATTACCCATATACACACATATATATAAACCTA [CACACA_site2737] | 8.24 ± 0.44
TTTTGTTATTTTTTAGTGCATATAAAGGTTGTTAAG | 10.7 ± 0.4
TTTTGCAATAATGTTGCACACTAAATAGTCATCTAT [CACACA_site4304] | 8.83 ± 0.47
GTACGATAAAAAATTGGACAAAAAAAAAAAAAAAAT [XGTACX_negctrl_site158] | 7.66 ± 0.46
ATTTCATAAATTAAACGTACATAATACACACACATG [XGTACX_site4155] | 8.22 ± 0.26
TAAAACAACAAAGAAAATGAAAAAGTAAAAACATAT [CACACA_negctrl_site1049] | 7.88 ± 0.75
ACTGTAAAAGGATTTACACACATATTTACATTTACA [CACACA_site519] | 7.79 ± 0.7
TACCAATGCATAACGGTGCAAAAAAATAAGGAATAA | 10.47 ± 0.064
ATGCATATAACTACGTGTACAAATATACACAAATAC [XGTACX_site8811] | 8.27 ± 0.57
TTTCCTTATTAAAACACACAAATACATTATTTAATC [CACACA_site7080] | 7.65 ± 0.4
ACCCATAAAAAGGATACACACACACCCACCCATATA [CACACA_site8205] | 8.28 ± 0.8
ATATATATATTTGTATGTACATATATATATTCGTAT [XGTACX_site1640] | 8.79 ± 0.13
AATCCTTACGGACACACACACACGAATAAATAAAAA [CACACA_site4422] | 8.21 ± 0.26
GAGTATTCAAGTATTAGTACATATTATATAATAAAT [XGTACX_site7630] | 7.78 ± 0.18
TAAAATAAAAATTAAAGTACATATGTATATATATAT [XGTACX_site3984] | 9.32 ± 0.34
TACAAAATGGGGAACACACACATATATAAATAAATA [CACACA_site7751] | 7.97 ± 0.48
ATAATTATTTTAGAAACACACAAATTAGAAAAAACA [CACACA_site3636] | 7.83 ± 0.75
ACATTAAAATATGATTGTACATTTTATTATATTATA [XGTACX_site912] | 7.67 ± 0.61
ACAACACTATATTACACATGCATTAAGAGAGTGAAC [TGCATGCA_site124] | 8.36 ± 0.55

Sequence | gcPBM binding intensity (ln)
ATTCAAATATTAAAAAGTACAAAAAAAAAACAAAAA [XGTACX_site1174] | 7.92 ± 0.38
ATATAATTATTGATATGTACATATTTGTTCTAGTTT [XGTACX_site3012] | 7.71 ± 0.64
CTATCATATTTATGCACACAAAAATAATTAATTCGT [CACACA_site2614] | 9.63 ± 0.35
ACCTGTTCATATGATCGTACACGTCAGTTTATATGA [XGTACX_site3869] | 8.21 ± 0.51
TATTTTGAGAATAAATGTACGAATTTTATATTTAAA [XGTACX_site1336] | 7.44 ± 0.27
TTACTTAAATATAAGTGTCCTCAAAAAAAAAAAAAA [XGTACX_site460] | 8.1 ± 0.54
ATGTATGTTTTTTTTTTATTGTTCAAAAAGTTGAAG [CACACA_negctrl_site1276] | 7.86 ± 0.59
ATTTTTTATATTAATTGTACATTGTATATATATATA [XGTACX_site8702] | 9.29 ± 0.4
AATATAAGTTTATTAGTGCACAGATAAATATATATT [GTGCAC_site9784] | 11.4 ± 0.23
TTTTTATAAAAATTATTAAAAAAATTATTTATAGCT [CACACA_negctrl_site265] | 7.29 ± 0.49
TAGCGCATAAAAAAAAAAAAATATATACTAATAAAT [GTGCAC_negctrl_site276] | 7.58 ± 0.37
AAATATATTATTATCTTATCAATTAAAAGAATAAAC [CACACA_negctrl_site779] | 7.55 ± 0.59
TTTTTTTTCAATCTCTATATATTAAGGTTTATATTT [XGTACX_negctrl_site397] | 7.46 ± 0.53
CGTGTGTCCCCCTTAATCATCCAATCGTTCATTTTG [CACACA_negctrl_site1008] | 8.38 ± 0.28
TATATAATGGTAAAAACACACAAATATGAAGATGTT [CACACA_site722] | 7.72 ± 0.66
AAATATAAAAGTATATGTACATATATATATATATAT [XGTACX_site7446] | 9.4 ± 0.47
AATAAATAGATATATACACACATATATCTATAATAT [CACACA_site6557] | 7.64 ± 0.43
CATATTCCCCCCCACACACACACACCCATACATACC [CACACA_site2303] | 11.2 ± 0.44
TCTTCATTTTTATGTGCATGTAAAATTTTTTTTTTT [TGCATGCA_site963] | 8.59 ± 0.74
GACAATAAAAAGAAAAGTACATATATAAATTAACCA [XGTACX_site7858] | 7.69 ± 0.51
AGAGGATCATAGTTATGTACACATATTTAACATAAA [XGTACX_site7232] | 7.6 ± 0.44
TTTTTTTCTAATTATGCACACATATCAAAATATTCA [CACACA_site8886] | 10.1 ± 0.31
ATATTTATTATATAATGTACAAAAAAAAAAAAAAAA [XGTACX_site629] | 8.01 ± 0.66

Sequence | gcPBM binding intensity (ln)
AAACGTAACATATATATATATATATATAAGATATAT [CACACA_negctrl_site126] | 8.36 ± 0.38
ATAAATCTACACCGCACACAAAAACAACAAATATTA [CACACA_site5396] | 8.38 ± 0.2
AATGAATATATATAAATATATATATATATATATATA [CACACA_negctrl_site1494] | 9.22 ± 0.55
ATATTTGTATAAATTGCACACTTTATTTTTTTTAAG [CACACA_site1558] | 8.87 ± 0.27
ATGTTATTACATAATTGTACATTTTGAGCAATTAAG [XGTACX_site4640] | 7.68 ± 0.33
TATATAATATTCTACACACCAACAACAAACATATAT [CACACA_site567] | 8.07 ± 0.43
ATATATATATTTATATGTACATAATATAAAATTTCT [XGTACX_site3720] | 8.8 ± 0.071
ATATTCTGATTTTAGATGCACTTCGTTAACAAAATA [GTGCAC_site9958] | 9.195 ± 0.064
AAAAGAATAATAATTTATGTATATTAATTAAAGAAT [XGTACX_negctrl_site402] | 7.46 ± 0.54
TTATATATATGTGTATGTACATATATATATATATAT [XGTACX_site1141] | 9.38 ± 0.54
TATCATATATTATATGCACACATGTTTTTCAAGAAT [CACACA_site1892] | 9.335 ± 0.078
TATTTATTATTATGTACACACTATATTAAAACATAA [CACACA_site4549] | 8.175 ± 0.064
TATGTGAATCCTAAGTGTACACATCTTACATATATA [XGTACX_site2506] | 8.15 ± 0.4
AGTATACGCAGACACACACACACATATATATATATA [CACACA_site1735] | 9.54 ± 0.52
ATAAGATGATTAATTACACACTTTATAGGATATTTA [CACACA_site1711] | 7.57 ± 0.55
GGTATATGCATAAAGAGTACGTAACTTCTTTTTGTT [XGTACX_site6344] | 8.22 ± 0.59
TTTTTTTTTTTTTCTTCACACACAGTACTACTATTT [CACACA_site8759] | 8.14 ± 0.77
TTAGCTTTTTTTTAAACATGCAACTACTTGATCCAC [TGCATGCA_site1017] | 7.84 ± 0.45
CCAAAAAATATATGTAGTACTACATTATTAAATATG [XGTACX_site5128] | 7.95 ± 0.36
ATTAAGTACTAAAAAGTGCAGTTCGGTACTGTGCTT [GTGCAC_site9755] | 9.23 ± 0.19
